From PubChem BioAssay (NCATS)
Several values for one entry are separate records, joined by “and”; a condition that tells them apart may be missing. Identical values can stand only once. Inconclusive means that the source gave no clear call. Such entries were picked first, then a sample of the others. For some of these results: Potencies beside an inconclusive call are fits to weak or partial responses and may not hold up. Activity calls are given as the source filed them. Unless noted, calls come from the whole dose curve; as a rule, active = well fitted curve in the direction sought with a large enough effect; inconclusive = small, poorly fitted or top-dose-only effect, or another doubt; inactive = no such curve, though single readings can be large; an effect the other way counts as inactive or inconclusive.

Tests used:
[1] = qHTS Assay for Identification of Small Molecule Antagonists for NFkB Signaling Pathway (AID 895; active = well fitted inhibition curve with a large enough effect in the signal ratio, with a control signal flat, not every such curve was filed as active; inconclusive = small, poorly fitted or top-dose-only effect, or effect the other way, or a change in a side signal; the % refers to the signal ratio); conditions: NFkB beta-lactamase reporter cells, FRET ratio 460/530; activity change, negative = inhibition: at 38.3 µM (top of the series) unless noted
Outline: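 NFkB-bla ME-180 cervical carcinoma cells with beta-lactamase reporter under NFkB response element; compounds added, then TNF alpha at 10 pM final (EC50), 5 h at 37 C. LiveBLAzer substrate 2 h, room temperature; emission 460/530 nm at 405 nm excitation.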

[2] = qHTS Assay for Identification of Small Molecule Antagonists for Thrombopoietin (TPO) Signaling Pathway (AID 918); conditions: TPO-dependent cell signaling reporter, antagonist mode; activity change, negative = inhibition: at 38.5 µM (top of the series)
Outline: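 Murine Ba/F3 cells expressing human TPO receptor and a Glycoprotein IIb promoter-luciferase reporter, IL-3-starved overnight, treated with compound plus TPO at EC50 (26 pM final). After 24 h at 37 C, luminescence read to detect inhibitors.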

[3] = target: Muscarinic acetylcholine receptor M1 (Rattus norvegicus) (UniProt P08482); experiment: qHTS Assay for Antagonists of Acetylcholine Muscarinic M1 Receptor: Measurement of IP-One Response (AID 944)
Chain of UniProt P08482 (P08482 whole entry, looked up): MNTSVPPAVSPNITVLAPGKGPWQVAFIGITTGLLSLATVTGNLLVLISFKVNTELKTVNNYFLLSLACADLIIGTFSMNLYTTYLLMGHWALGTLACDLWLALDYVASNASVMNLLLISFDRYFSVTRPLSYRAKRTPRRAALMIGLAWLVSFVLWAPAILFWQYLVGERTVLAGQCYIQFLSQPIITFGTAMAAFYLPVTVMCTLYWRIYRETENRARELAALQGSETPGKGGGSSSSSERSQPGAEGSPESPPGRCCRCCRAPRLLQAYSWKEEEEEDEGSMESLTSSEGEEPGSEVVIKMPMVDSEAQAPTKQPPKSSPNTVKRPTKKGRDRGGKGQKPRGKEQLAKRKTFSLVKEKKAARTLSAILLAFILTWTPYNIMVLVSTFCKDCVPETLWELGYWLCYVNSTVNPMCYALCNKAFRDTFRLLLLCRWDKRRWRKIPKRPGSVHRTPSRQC

[4] = qHTS for differential inhibitors of proliferation of Plasmodium falciparum line GB4 (AID 1816); conditions: Potency: Plasmodium falciparum GB4 proliferation inhibition
[5] = qHTS for differential inhibitors of proliferation of Plasmodium falciparum line 3D7 (AID 1876)
[6] = target: ATP-dependent 6-phosphofructokinase (Trypanosoma brucei brucei) (UniProt O15648); experiment: qHTS Validation Assay to Find Inhibitors of T. brucei phosphofructokinase (AID 485368)
Chain of UniProt O15648 (O15648 whole entry, looked up): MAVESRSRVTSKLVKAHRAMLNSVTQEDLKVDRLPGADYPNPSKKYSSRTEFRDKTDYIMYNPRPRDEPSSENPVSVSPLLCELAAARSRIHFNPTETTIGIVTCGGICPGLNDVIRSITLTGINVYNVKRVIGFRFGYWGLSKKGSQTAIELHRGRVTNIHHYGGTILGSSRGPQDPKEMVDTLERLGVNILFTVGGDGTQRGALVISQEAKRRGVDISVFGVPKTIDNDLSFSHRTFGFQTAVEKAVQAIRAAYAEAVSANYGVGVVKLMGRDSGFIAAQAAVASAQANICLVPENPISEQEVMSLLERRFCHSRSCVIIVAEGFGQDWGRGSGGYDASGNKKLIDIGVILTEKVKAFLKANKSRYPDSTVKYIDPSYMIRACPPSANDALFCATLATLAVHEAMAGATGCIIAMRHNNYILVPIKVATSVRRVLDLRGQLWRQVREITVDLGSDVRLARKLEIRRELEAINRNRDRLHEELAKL
Outline: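 Enzyme reaction in triethanolamine buffer pH 8.0 with 5 mM MgCl2, 0.01% Tween20 and 0.1% BSA; PFK 1.25 nM, F6P 0.5 mM, ATP 0.1 mM, 45 min RT. ADP quantified by ADP-Glo.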

[7] = Quantitative high throughput screen for delayed death inhibitors of the malarial parasite plastid, 96 hour incubation (AID 488745)
Outline: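 Luciferase-expressing P. falciparum in erythrocytes (2% hematocrit, 0.1% parasitemia) incubated with compound for 96 h at 37 C, 5% CO2, in RPMI 1640 with 0.5% Albumax. Growth inhibition read as decreased luminescence.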

[8] = target: Chromobox protein homolog 1 (Homo sapiens) (UniProt P83916); experiment: qHTS Validation Assay for Inhibitors of HP1-beta Chromodomain Interactions with Methylated Histone Tails (AID 488953)
Chain of UniProt P83916 (P83916 whole entry, looked up): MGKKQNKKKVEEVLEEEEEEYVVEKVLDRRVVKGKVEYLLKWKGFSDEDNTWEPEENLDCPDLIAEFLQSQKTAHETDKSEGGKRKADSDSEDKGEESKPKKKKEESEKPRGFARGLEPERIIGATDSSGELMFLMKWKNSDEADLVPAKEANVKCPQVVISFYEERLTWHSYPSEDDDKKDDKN
Outline: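 HP1-beta (50 nM) preformed 30 min with biotinylated H3(1-18)K9me3 peptide (50 nM) in PBS pH 7.4, 0.01% Tween-20. Compounds added for 30 min at room temperature. Complex disruption read by AlphaScreen with streptavidin donor/nickel chelate acceptor beads (10 ug/mL each).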

[9] = target: ATPase family AAA domain-containing protein 5 (Homo sapiens) (UniProt Q96QE3); experiment: Validation screen for small molecules that inhibit ELG1-dependent DNA repair in human embryonic kidney (HEK293T) cells expressing luciferase-tagged ELG1 (AID 493107); conditions: HEK293T ELG1-luciferase level, luminescence, 5-fluorouridine co-treatment, 16 h; activity change, negative = decrease: at 46.1 µM (top of the series)
Chain of UniProt Q96QE3 (Q96QE3 whole entry, looked up, the tested form may be a part): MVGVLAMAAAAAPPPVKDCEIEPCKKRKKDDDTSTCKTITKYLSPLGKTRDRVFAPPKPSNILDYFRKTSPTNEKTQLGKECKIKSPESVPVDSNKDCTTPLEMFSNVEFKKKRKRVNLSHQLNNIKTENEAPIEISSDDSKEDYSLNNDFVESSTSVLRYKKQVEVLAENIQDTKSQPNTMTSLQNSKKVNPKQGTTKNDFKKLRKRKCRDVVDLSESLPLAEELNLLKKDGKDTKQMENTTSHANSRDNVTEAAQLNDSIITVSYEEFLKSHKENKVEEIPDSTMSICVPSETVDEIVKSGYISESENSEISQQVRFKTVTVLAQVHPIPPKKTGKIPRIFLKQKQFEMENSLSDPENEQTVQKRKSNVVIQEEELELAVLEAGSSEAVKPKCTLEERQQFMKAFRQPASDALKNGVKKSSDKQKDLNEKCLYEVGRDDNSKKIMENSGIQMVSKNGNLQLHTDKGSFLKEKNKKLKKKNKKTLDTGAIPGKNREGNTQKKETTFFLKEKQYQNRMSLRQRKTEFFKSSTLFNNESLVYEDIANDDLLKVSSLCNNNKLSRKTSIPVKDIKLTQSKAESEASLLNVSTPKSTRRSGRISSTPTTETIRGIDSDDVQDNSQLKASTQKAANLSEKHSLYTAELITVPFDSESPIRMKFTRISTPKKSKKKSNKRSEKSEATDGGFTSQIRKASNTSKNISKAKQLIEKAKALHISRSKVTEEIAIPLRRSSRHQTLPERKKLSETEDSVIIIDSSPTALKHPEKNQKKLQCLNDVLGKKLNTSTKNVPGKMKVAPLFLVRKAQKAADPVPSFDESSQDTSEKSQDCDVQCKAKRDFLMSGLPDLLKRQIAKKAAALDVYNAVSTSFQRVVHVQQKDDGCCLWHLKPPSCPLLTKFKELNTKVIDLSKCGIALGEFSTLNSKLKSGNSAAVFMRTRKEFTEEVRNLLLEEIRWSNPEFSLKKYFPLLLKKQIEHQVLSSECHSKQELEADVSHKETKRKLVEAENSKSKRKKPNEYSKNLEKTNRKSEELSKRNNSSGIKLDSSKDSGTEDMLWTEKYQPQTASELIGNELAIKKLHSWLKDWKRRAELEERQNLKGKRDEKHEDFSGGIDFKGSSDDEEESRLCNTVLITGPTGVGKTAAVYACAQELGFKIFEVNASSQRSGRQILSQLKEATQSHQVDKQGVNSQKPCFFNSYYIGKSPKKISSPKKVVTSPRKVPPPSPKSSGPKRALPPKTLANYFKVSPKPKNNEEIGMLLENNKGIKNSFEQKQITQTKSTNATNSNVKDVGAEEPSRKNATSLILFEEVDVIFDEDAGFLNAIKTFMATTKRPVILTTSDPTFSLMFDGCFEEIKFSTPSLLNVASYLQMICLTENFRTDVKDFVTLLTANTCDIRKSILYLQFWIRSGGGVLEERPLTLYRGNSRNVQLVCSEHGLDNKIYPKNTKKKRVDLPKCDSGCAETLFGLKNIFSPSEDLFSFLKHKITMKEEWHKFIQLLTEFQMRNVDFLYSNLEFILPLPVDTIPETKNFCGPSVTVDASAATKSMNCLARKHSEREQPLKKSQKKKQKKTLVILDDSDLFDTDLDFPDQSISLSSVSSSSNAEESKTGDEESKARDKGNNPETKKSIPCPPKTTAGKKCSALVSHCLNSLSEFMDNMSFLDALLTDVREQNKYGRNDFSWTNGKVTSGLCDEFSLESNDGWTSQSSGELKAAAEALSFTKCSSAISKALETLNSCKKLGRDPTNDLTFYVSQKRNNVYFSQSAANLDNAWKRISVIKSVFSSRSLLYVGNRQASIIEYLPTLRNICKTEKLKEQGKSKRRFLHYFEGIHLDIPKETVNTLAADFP
Outline: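 HEK293T cells expressing luciferase-tagged ELG1, 2,000 per well, treated with 5-fluorouridine plus compound for 16 h at 37 C. ONE-Glo luminescence after 30 min at room temperature reports ELG1 reporter level.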

[10] = qHTS Assay for Identifying Gametocytocidal Compounds (AID 743244); conditions: P. falciparum 3D7 stage III-V gametocytes, alamarBlue, 72 h; max response: stronger effect = lower value
Outline: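 Compounds are pinned into medium, gametocytes (stage III–V, 3D7, 20,000 cells/well) added, and plates held 72 h at 37 °C in 5% CO2. AlamarBlue follows for 24 h before fluorescence reading.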

[11] = target: N-terminal Xaa-Pro-Lys N-methyltransferase 1 (Homo sapiens) (UniProt Q9BV86); experiment: qHTS Assay for Inhibitors of N-terminal methyltransferase 1 (NTMT1): LOPAC validation of the NTMT1 SAHH-coupled ThioGlo3 Assay (AID 1347143)
Chain of UniProt Q9BV86 (Q9BV86 whole entry, looked up): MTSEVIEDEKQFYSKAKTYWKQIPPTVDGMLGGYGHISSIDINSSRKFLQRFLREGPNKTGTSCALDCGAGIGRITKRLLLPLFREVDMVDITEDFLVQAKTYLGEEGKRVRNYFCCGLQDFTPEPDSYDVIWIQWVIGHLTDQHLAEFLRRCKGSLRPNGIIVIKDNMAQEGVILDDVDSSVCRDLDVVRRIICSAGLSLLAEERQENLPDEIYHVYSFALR
Outline: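 Fluorescence read-out (excitation 340nm, emission 450nm) of SAH-derived thiol, measured via SAHH coupling and ThioGlo3, taken immediately and after a 30 min room-temperature reaction, then normalized to the background read. Enzyme: NTMT1 at 125nM; cofactor SAM 100uM in the added reagent.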

[12] = Primary qHTS for small molecule stabilizers of the endoplasmic reticulum resident proteome: Secreted ER Calcium Modulated Protein (SERCaMP) assay (AID 1508630); conditions: SH-SY5Y GLuc-SERCaMP (Gaussia luciferase released on ER calcium loss) secretion, thapsigargin, luminescence; activity change, negative = inhibition: at 38.4 µM (top of the series)
Outline: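 GLuc-SERCaMP-expressing SH-SY5Y cells, pretreated 16 h with compound, are challenged with thapsigargin to empty ER calcium stores; after 4 h, coelenterazine is added directly to the medium and luminescence is imaged.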

[13] = target: Cytochrome P450 2C19 (Homo sapiens) (UniProt P33261); experiment: qHTS Assay for Inhibitors and Substrates of Cytochrome P450 2C19 (AID 899)
Chain of UniProt P33261 (P33261 whole entry, looked up): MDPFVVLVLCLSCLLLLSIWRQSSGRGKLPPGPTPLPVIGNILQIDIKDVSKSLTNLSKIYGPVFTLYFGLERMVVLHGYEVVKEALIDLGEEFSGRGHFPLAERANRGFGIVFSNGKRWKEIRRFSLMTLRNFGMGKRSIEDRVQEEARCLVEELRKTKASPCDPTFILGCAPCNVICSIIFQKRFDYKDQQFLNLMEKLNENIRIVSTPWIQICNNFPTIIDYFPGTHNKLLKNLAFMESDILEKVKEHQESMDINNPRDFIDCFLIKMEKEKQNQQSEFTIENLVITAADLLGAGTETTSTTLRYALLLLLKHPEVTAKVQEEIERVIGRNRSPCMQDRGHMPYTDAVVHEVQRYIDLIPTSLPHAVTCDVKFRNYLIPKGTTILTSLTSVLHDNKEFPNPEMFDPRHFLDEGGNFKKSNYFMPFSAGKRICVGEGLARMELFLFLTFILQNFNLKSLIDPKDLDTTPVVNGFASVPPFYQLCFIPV
Outline: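 NADPH-dependent conversion of Luciferin-H EGE (10uM, at KM) by 5nM enzyme in 50mM KPO4, 60 min at 37C following 10 min compound preincubation. Stopped with luciferin detection buffer; luminescence read after 20 min.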

[14] = test system: Zika virus NS2B-NS3 protease; experiment: Primary screen GU AMC qHTS for Zika virus inhibitors (AID 1347154)
Outline: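 Unlinked Zika NS2B hydrophilic domain/NS3 protease domain noncovalent complex (25 nM final) in 10 mM Tris-HCl pH 8.0, 0.01% Tween 20, with AMC peptide substrate. Fluorescence (ex 340, em 450 nm) change over 15 min, room temperature; percent inhibition fitted to 4-parameter Hill equation.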

[15] = Confirmatory screen NINDS Rhodamine qHTS for Zika virus inhibitors (AID 1347161)
Outline: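 qHTS dose-response: 25 nM linked protease, pH 8.0 Tris/Tween buffer, cpd titration, 15 min RT preinc, 1.5 microM Rhod110 peptide, 15 min reaction (~15% conversion), Ex480/Em540; 4-parameter Hill fit.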

| Compound | Potency [1] | activity change, negative = inhibition [2] | Potency [3] | Potency [4] | Potency [5] | Potency [6] | Potency [7] | Potency [8] | Potency [9] | Potency [10] | Potency [11] | Potency [12] | Potency [13] | Potency [14] | Potency [15] |
| --- | --- | --- | --- | --- | --- | --- | --- | --- | --- | --- | --- | --- | --- | --- | --- |
| CNCCc1c[nH]c2ccc(O)cc12 | inactive | inconclusive: -9.33% [phenotype inactive] | inactive | inactive | inactive | inactive | inconclusive: 13.1 µM [activator, single point] | inconclusive: 50.1 µM [inhibitor, partial curve] | inactive | inconclusive: 5.62 µM [inhibitor, single point] | inconclusive: 44.7 µM [inhibitor, partial curve] | inconclusive: 2.24 µM [inhibitor, full curve, poor fit] | – | – | – |
| Clc1cncc(N2CCNCC2)n1 | – | – | – | – | – | – | – | – | – | – | – | inconclusive: 891 nM [inhibitor, full curve] and inconclusive: 2 µM [inhibitor, full curve, poor fit] | inconclusive: 6.31 µM [inhibitor, full curve] | inconclusive: 23.8 µM [inhibitor, partial curve] and active: 15 µM | inactive |
